Results published in paper PMC4336329 (PLoS ONE, 2015).
The campaign covered roughly 310,000 compounds. About 2,200 (0.71%) showed an effect of 50% or more. The effect is printed as a negative number. This is one part of the list.

Each compound was assayed against human ether-à-go-go-related gene (hERG) potassium channel (human, UniProt Q12809) (assay: primary screen, population patch clamp on CHO cells stably expressing hERG).
Sequence of human ether-à-go-go-related gene (hERG) potassium channel (Q12809 whole entry, looked up): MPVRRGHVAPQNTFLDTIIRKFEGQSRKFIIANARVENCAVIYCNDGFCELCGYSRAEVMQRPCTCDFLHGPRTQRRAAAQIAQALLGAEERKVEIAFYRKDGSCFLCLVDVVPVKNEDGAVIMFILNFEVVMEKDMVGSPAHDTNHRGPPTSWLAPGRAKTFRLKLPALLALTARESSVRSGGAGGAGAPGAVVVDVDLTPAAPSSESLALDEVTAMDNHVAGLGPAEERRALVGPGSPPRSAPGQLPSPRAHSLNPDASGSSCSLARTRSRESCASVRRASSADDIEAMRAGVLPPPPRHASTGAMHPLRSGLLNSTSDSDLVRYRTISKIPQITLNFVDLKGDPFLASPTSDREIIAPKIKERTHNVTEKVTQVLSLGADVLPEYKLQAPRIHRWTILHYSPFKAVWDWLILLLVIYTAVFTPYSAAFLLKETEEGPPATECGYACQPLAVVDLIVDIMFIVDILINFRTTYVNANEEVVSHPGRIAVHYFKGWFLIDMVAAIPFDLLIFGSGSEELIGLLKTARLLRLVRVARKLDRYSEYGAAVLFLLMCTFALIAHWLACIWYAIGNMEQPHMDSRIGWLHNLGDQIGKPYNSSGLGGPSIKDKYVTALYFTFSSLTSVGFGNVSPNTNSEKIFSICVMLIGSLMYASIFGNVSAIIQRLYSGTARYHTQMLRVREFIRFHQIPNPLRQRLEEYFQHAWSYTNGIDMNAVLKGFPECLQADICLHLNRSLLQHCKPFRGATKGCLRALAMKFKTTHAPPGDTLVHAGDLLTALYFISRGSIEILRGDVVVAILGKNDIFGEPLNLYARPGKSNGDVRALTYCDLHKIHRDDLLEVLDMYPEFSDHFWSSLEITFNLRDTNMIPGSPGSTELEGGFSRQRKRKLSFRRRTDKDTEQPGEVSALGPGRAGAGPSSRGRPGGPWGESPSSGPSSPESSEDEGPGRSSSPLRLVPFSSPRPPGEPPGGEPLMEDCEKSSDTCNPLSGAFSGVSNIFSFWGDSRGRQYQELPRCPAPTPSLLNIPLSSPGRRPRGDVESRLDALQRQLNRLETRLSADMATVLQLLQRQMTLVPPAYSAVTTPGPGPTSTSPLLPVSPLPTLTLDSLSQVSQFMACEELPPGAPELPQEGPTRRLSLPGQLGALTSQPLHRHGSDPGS

Compound | hERG current change (%, negative = inhibition) at 1uM [%]
O=C(CN(Cc1ccc(F)cc1)S(=O)(=O)c1ccccc1)N1CCCCC1 | -6.32
O=C(NCc1cccnc1)Nc1ccc(Br)cc1Cl | 14.2
CCOc1nc(-c2ccccc2O)nc2ccccc12 | 8.03
CCCCN(C)CCCNC(=O)CC1Oc2ccccc2NC1=O (centres unmarked) | -4.45
CC(C)(C)NC(=O)C(c1ccncc1)N(C(=O)CNC(=O)c1ccco1)c1ccc2c(c1)OCO2 (centres unmarked) | 8.54
CCC(C)c1ccccc1NC(=O)c1[nH]c(C)c(C(C)=O)c1C (centres unmarked) | 5.85
Cc1nnc(SCC(=O)Nc2nnc(SCc3cccc(Br)c3)s2)s1 | 5.79
COCCCN=C1NN=C(c2cc(C)n(-c3ccccc3F)c2C)CS1 | -3.62
COc1ccc(Br)cc1C(=O)Nc1ccccc1-c1ccccc1 | -0.0436
C=CCc1cccc2cc(C(=O)N(CC)CC)c(=O)oc12 | 0.254
C=CCOC(=O)C1=C(C)NC(=S)C(C#N)(CC=C)C1c1ccccc1Cl (centres unmarked) | 11.2
Nc1nc(N)c(N=O)c(OCC2CCCCC2)n1 | 15.4
N#Cc1c(NC(=S)NC(=O)c2ccccc2)sc2c1CCC2 | 5.9
O=C1CC(Sc2ccc(Cl)cc2)C(=O)N1Cc1ccncc1 (centres unmarked) | 3.72
C/C(=N/NC(=O)c1cc(-c2ccccc2)nc2c(Cl)cccc12)c1cccnc1 | 16
COC(=O)c1ccc(/C=N/Nc2nc(N3CCCCC3)nc(N3CCCCC3)n2)cc1 | 6.02
COCc1cc(N2CCN(c3ccccc3F)CC2)nc(-c2ccccc2)n1 | 12.1
COc1cccc(OCCNc2cc(N3CCCCC3)ccc2[N+](=O)[O-])c1 | 12.6
C=CCNC(=O)c1onc(CSc2ccc(C)c(C)c2)c1C(=O)O | 10.1
Cc1ccc(OCCOCCNC(C)C)c(Br)c1.O=C(O)C(=O)O | 2.67
COc1ccc2c(c1)c1nnc(SCC(=O)NC3CC3)nc1n2C | 10.8
CN1C(=O)/C(=C/c2ccc(OCc3ccc(F)cc3)cc2)NC1=S | 20.7
COc1ccc(C2=Nn3c(nnc3C3CCCCC3)SC2)cc1OC | -1.87

Compound | hERG current change (%, negative = inhibition) at 1uM [%]
N#Cc1c(-c2ccccc2)cc2nc3ccccc3n2c1N | 12.5
CC(=O)c1ccc(NC(=O)C2CCCN(S(=O)(=O)c3c(C)[nH]c(=O)[nH]c3=O)C2)cc1 (centres unmarked) | 17.2
CCOC(=O)c1ccc(NC(=O)CCOc2ccc(C)cc2)cc1 | 9.9
COC(=O)c1ccc(NC(=S)NN2CCOCC2)cc1 | -12.8
C=CCC(CC(O)COCCC)C(=O)NNC(=S)Nc1ccccc1 (centres unmarked) | 17.1
Cc1ccc(-c2c(C(=O)N/N=C/c3ccc4c(c3)OCO4)nnn2-c2nonc2N)cc1 | 15.1
COC(=O)c1cc(NC(=O)c2ccc([N+](=O)[O-])cc2)c(=O)oc1C | 7.17
COc1ccc(/C(C)=N/Nc2nc3ccccc3nc2C)cc1OC | 7.64
COc1ccc(-c2noc(N3CCC(C(=O)Nc4ccccc4OC)CC3)n2)cc1 | 0.853
CCc1ccccc1NC(=O)CCC(=O)Nc1nnc(C(C)C)s1 | 19.1
CCN1C(=O)C(CC(=O)Nc2ccc(F)cc2)N(Cc2ccco2)C1=S (centres unmarked) | -0.542
Cc1cc(OCC(=O)NCC(c2cccs2)N2CCOCC2)ccc1C(C)C (centres unmarked) | -6.69
O=C(c1cccc(Cl)c1)N1CCC(C(=O)N2CCN(Cc3ccccc3)CC2)CC1 | -8.46
C=C(C)COc1ccc(-c2nc(N)nc(C(F)(F)F)c2-c2ccc(OC)cc2)c(O)c1 | 19.8
COc1cc(/C=N/NC(=O)c2ccncc2)ccc1O | 4.04
CCOc1ccc2[nH]c(=O)c(CN(CCc3ccccc3)C(=O)N3CCCC3)cc2c1 | -4.91
O=C(Nc1ccc(Br)cc1)C1Cc2ccccc2O/C1=N\O (centres unmarked) | 7.28
O=C(NCc1ccc(F)cc1)C1CCN(C(=O)NCc2ccccc2)CC1 | 19.1
COc1cc(C)c(Cl)cc1S(=O)(=O)NCc1ccco1 | 8.11
COCCSc1nnc(NC(=O)COc2ccc3c(c2)OCO3)s1 | 14.1
COc1cc(CN2CCN(C(=O)c3ccc(-c4ccccc4)cc3)CC2)cc(OC)c1OC.O=C(O)C(=O)O | -0.534
CCC(=O)c1ccc(OCC(=O)NC2(C#N)CCCCC2)cc1 | 7.56
CS(=O)(=O)Nc1ccc(C(=O)Nc2ccc(S(=O)(=O)Nc3nccs3)cc2)cc1 | 11.5

Compound | hERG current change (%, negative = inhibition) at 1uM [%]
O=C(/C=C/c1cc[n+](CC(=O)c2ccc3cccc4c3c2CC4)cc1)c1ccc2cccc3c2c1CC3.[Br-] | 9.17
Cn1cc(CCC(=O)N2CCCC(Nc3ccc(F)cc3)C2)cn1 (centres unmarked) | 13.2
O=C(Nc1nccs1)c1ccc(COc2ccccc2)o1 | 12.8
CCCOc1ccc(CCc2n[nH]c(=S)n2Cc2ccccc2)cc1 | -1.28
CCC1CN(C(=O)N2CCC(C(=O)NCc3ccccc3OC)CC2)c2cc(C)ccc2O1 (centres unmarked) | 21
CS(=O)(=O)N1CCN=C1SCc1ccc([N+](=O)[O-])cc1 | -1.47
CCOC(=O)N1CCN(Cc2cn3ccccc3n2)CC1.O=C(O)C(=O)O | 19.5
Cc1nnc(N2CCCCC2)c2ccccc12 | 4.96
O=C(c1ccc(N2CCCCC2)c([N+](=O)[O-])c1)N(Cc1ccccc1)c1ccccn1 | -0.948
CCCS(=O)(=O)N1CCC(C(=O)N2CCc3ccccc3C2)CC1 | 8.35
O=C(O)C(Cc1c[nH]c2ccccc12)NS(=O)(=O)c1ccc(Br)cc1 (centres unmarked) | 11.9
CCSc1cnn(-c2ccccc2)c(=O)c1SCC | 7.95
O=c1cccc2n1CC1CC2CN(Cc2ccc3c(c2)OCO3)C1 (centres unmarked) | -2.39
O=C(O)C(=O)O.O=C(c1cccc(F)c1)N1CCN(C2CCCCC2)CC1 | -22.6
O=C(COC(=O)/C=C/C(=O)OCC(=O)Nc1ccccc1F)Nc1ccccc1F | 14.3
CSc1ccc(CN2CCN(C(=O)COc3cccc(C)c3)CC2)cc1 | 5.03
CC(C)C(C)NC(=O)CSc1nc2scc(-c3ccco3)c2c(=O)n1-c1ccccc1 (centres unmarked) | 11
O=C(CCCCCN1C(=O)CCC1=O)Nc1ccc(Br)cc1F | 12.7
CC(=O)Nc1ccc(OCC(O)Cn2c3ccccc3c3ccccc32)cc1 (centres unmarked) | 15.3
CC(=O)c1cccc(NC(=O)NC2CCCCC2)c1 | -7.14
Cn1c2ccccc2c(=O)c2c(=O)n(-c3ccc(F)cc3)c(-c3cccs3)nc21 | 14.4
O=C(CN1C(=O)S/C(=C/c2ccccn2)C1=O)N1CCOCC1 | 18.8
C=CCNC(=O)c1ccccc1Cl | 7.48

Compound | hERG current change (%, negative = inhibition) at 1uM [%]
O=C(Nc1ccc(Cl)c(Cl)c1)c1cccnc1 | 8.6
COc1ccc(CCNC(=O)C2CC2)cc1OC | 1.11
COc1ccc(Cl)cc1C(=O)n1nc(C)cc1C | 9.51
Cc1cc(NC(=O)CN(C)C)c([N+](=O)[O-])cc1C | -14.2
COc1ccccc1C(=O)Nc1cccc(N(C)S(C)(=O)=O)c1 | 20.1
O=C(NCC1OCCCN1S(=O)(=O)c1cc(F)ccc1F)C(=O)NC1CCCCCC1 (centres unmarked) | 13.1
Nc1nc(CSc2nc3ccccc3[nH]2)nc(N2CCOCC2)n1 | 13.5
O=S(=O)(NC1CCCCC1N1CCC(O)CC1)c1ccccc1 (centres unmarked) | 12.7
Cc1cccc(N2C(=O)CC(Sc3nccc(C)n3)C2=O)c1 (centres unmarked) | 14.4
Cc1ccccc1CCN(C(=O)CN1C(=O)c2ccccc2S1(=O)=O)C(C(=O)NCC1CCCO1)c1ccncc1 (centres unmarked) | 9.03
O=C(NC1CCCC1)C(c1ccc(F)cc1)N(Cc1ccccc1Cl)C(=O)CCl (centres unmarked) | 1.43
O=C(Nc1ccccc1C(=O)NCCCN1CCOCC1)c1ccc(F)cc1 | 9.57
COc1ccccc1CN1CC(C(=O)NCc2ccc(C)c(F)c2)CCC1=O (centres unmarked) | 8.01
Cn1nnc(NC(=S)NC(=O)c2cccc3c(Br)cccc23)n1 | 20.2
COc1ccc(OC)c(C(=O)COC(=O)CN2C(=O)NC3(CCCCC3C)C2=O)c1 (centres unmarked) | 2.42
O=C(O)/C(=C\c1ccco1)NC(=O)c1ccc(Br)o1 | 9.58
CCn1cc(CCC(=O)NC2CCCC2)c2ccccc21 | 12.4
Br.Cc1cc(C)nc(/N=C2/NC(=O)CS2)n1 | 8.58
CCCN(CCC)C(=O)C1CCCN(S(=O)(=O)c2ccc3c(c2)oc(=O)n3C)C1 (centres unmarked) | 10.6
CC(C)C(NC(=O)c1ccc2c(c1)OCCO2)c1nc2ccccc2[nH]1 (centres unmarked) | 11.7
